From patent publication US20190194291A1 (Hoffmann-La Roche, published 2019) come the findings set out here.

Several values for one entry are separate records, joined by “and”; a condition that tells them apart may be missing. Equal values may be shown once.

The target of assay [1] is T1, human 4-1BB (CD137) on cells (human, UniProt Q07011 24-255). In words: cell-based or functional assay.
Assay [2] has as its target T2, human FAP on cells (human, UniProt Q12884 1-760). As to the kind of experiment: cell-based or functional assay.
Assay [3] concerns the target T2, human FAP on cells. As to the kind of experiment: flow cytometry on FAP-expressing MV-3 cells, PE anti-human IgG detection (FIGS. 9A and B).
For assay [4], the target named is T2, human FAP on cells. As to the kind of experiment: flow cytometry on FAP-expressing WM-266-4 cells, PE anti-human IgG detection (FIGS. 9A and B).
For assay [5], the target named is T1, human 4-1BB (CD137) on cells. As to the kind of experiment: flow cytometry on activated human PBMCs (anti-CD3/anti-CD28), gated on CD4+ T cells, PE anti-human IgG detection.
The target is the same in assay [6]. As to the kind of experiment: flow cytometry on activated human PBMCs (anti-CD3/anti-CD28), gated on CD8+ T cells, PE anti-human IgG detection.
The target is the same in assay [7]. As to the kind of experiment: flow cytometry on activated human PBMCs (anti-CD3/anti-CD28), gated on gamma-delta T cells, PE anti-human IgG detection.
The target in assay [8] is T3, monomeric human 4-1BB avi His (human).
T3 construct: The entry holds the ectodomain together with the avi tag and the His tag; also called human 4-1BB His; Recombinant human 4-1BB avi his
In words: SPR (Biacore T200, 25 C): construct captured on anti-human Fc antibody, human 4-1BB avi His 2.7-2000 nM as analyte, 1:1 Langmuir fit, average of three experiments. Here is the method:
All SPR experiments were performed on a Biacore T200 at 25° C. with HBS-EP as running buffer (0.01 M HEPES pH 7.4, 0.15 M NaCl, 3 mM EDTA, 0.005% Surfactant P20, Biacore, Freiburg/Germany).
The dissociation was monitored for 120 seconds. Bulk refractive index differences were corrected for by subtracting the response obtained on reference flow cell.

The next assay concerns the target T4, human CD19 on cells (human, UniProt P15391 20-556).
T4 construct: also called CD19-expressing tumor cells WSU-DLCL2; OCI-Ly18
T4 sequence: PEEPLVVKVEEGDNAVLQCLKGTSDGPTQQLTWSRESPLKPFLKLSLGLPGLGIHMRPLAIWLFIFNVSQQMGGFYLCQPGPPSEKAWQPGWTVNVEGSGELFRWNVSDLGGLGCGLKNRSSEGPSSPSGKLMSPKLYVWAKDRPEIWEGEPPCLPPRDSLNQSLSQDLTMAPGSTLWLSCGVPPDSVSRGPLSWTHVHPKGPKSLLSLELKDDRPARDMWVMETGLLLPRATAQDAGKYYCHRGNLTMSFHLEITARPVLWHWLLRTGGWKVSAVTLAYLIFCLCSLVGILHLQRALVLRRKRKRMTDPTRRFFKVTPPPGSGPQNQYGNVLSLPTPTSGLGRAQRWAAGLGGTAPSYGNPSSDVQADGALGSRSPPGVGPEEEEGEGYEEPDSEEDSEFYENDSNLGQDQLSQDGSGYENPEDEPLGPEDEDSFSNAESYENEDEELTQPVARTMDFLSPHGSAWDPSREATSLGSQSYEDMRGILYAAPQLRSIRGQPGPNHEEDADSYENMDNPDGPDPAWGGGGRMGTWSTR
As to the kind of experiment: flow cytometry on CD19+ WSU-DLCL2 cells, PE anti-human IgG detection.

The target of assay [9] is T1, human 4-1BB (CD137) on cells. As to the kind of experiment: flow cytometry on activated human PBMCs (anti-CD3/anti-CD28 beads, 48 h), gated on CD4 T cells.
Assay [10] shares this target. As to the kind of experiment: flow cytometry on activated human PBMCs (anti-CD3/anti-CD28 beads, 48 h), gated on CD8 T cells.
Assay [11] has as its target T3, monomeric human 4-1BB avi His. In words: SPR (Biacore T200, 25 C): construct captured on anti-human Fc antibody, human 4-1BB avi His as analyte; second KD column.

B1: monovalent FAP(4B9)-targeted 4-1BB ligand (71-248) trimer-containing Fc (kih) fusion antigen binding molecule (Construct 2.11) (Fc fusion)
chain: DKTHTCPPCPAPEAAGGPSVFLFPPKPKDTLMISRTPEVTCVVVDVSHEDPEVKFNWYVDGVEVHNAKTKPREEQYNSTYRVVSVLTVLHQDWLNGKEYKCKVSNKALGAPIEKTISKAKGQPREPQVCTLPPSRDELTKNQVSLSCAVKGFYPSDIAVEWESNGQPENNYKTTPPVLDSDGSFFLVSKLTVDKSRWQQGNVFSCSVMHEALHNHYTQKSLSLSPGGGGGSGGGGSREGPELSPDDPAGLLDLRQGMFAQLVAQNVLLIDGPLSWYSDPGLAGVSLTGGLSYKEDTKELVVAKAGVYYVFFQLELRRVVAGEGSGSVSLALHLQPLRSAAGAAALALTVDLPPASSEARNSAFGFQGRLLHLSAGQRLGVHLHTEARARHAWQLTQGATVLGLFRVTPEIPAGLGGGGSGGGGSREGPELSPDDPAGLLDLRQGMFAQLVAQNVLLIDGPLSWYSDPGLAGVSLTGGLSYKEDTKELVVAKAGVYYVFFQLELRRVVAGEGSGSVSLALHLQPLRSAAGAAALALTVDLPPASSEARNSAFGFQGRLLHLSAGQRLGVHLHTEARARHAWQLTQGATVLGLFRVTPEIPAGL
heavy: EVQLLESGGGLVQPGGSLRLSCAASGFTFSSYAMSWVRQAPGKGLEWVSAIIGSGASTYYADSVKGRFTISRDNSKNTLYLQMNSLRAEDTAVYYCAKGWFGGFNYWGQGTLVTVSSASTKGPSVFPLAPSSKSTSGGTAALGCLVKDYFPEPVTVSWNSGALTSGVHTFPAVLQSSGLYSLSSVVTVPSSSLGTQTYICNVNHKPSNTKVDKKV[human IgG1 Fc with changes omitted here]GGGGSGGGGSREGPELSPDDPAGLLDLRQGMFAQLVAQNVLLIDGPLSWYSDPGLAGVSLTGGLSYKEDTKELVVAKAGVYYVFFQLELRRVVAGEGSGSVSLALHLQPLRSAAGAAALALTVDLPPASSEARNSAFGFQGRLLHLSAGQRLGVHLHTEARARHAWQLTQGATVLGLFRVTPEIPAGL
light: EIVLTQSPGTLSLSPGERATLSCRASQSVTSSYLAWYQQKPGQAPRLLINVGSRRATGIPDRFSGSGSGTDFTLTISRLEPEDFAVYYCQQGIMLPPTFGQGTKVEIKRTVAAPSVFIFPPSDEQLKSGTASVVCLLNNFYPREAKVQWKVDNALQSGNSQESVTEQDSKDSTYSLSSTLTLSKADYEKHKVYACEVTHQGLSSPVTKSFNRGEC
notes: Human IgG1 Fc knob-into-hole with P329G, L234A, L235A; one FAP(4B9) Fab on the knob chain; split trimeric human 4-1BBL fused to the C-termini of the Fc chains
On to B1, for which, in assay [1], the “EC50 [nM] of NFkB-activation-induced Luciferase activity-curves, on 3T3-huFAP” value is 0.08 nM and the “EC50 [nM] of NFkB-activation-induced Luciferase activity-curves, on MV-3” value came to 0.18 nM. For the same molecule, in the assay with human FAP on cells [2], the “EC50 [nM] of CD25-upregulation on CD8+ T cells” value came out at 0.07 nM and the “EC50 [nM] of CD137 (4-1BB)-upregulating on CD8+ T cells” value was 0.11 nM. The same molecule showed an EC50 with human FAP on cells [3] of 0.82 nM. The EC50 with human FAP on cells [4] came out at 1.16 nM. The EC50 in assay [5] is 0.28 nM. This molecule showed a 50% effective concentration (EC50) in assay [6] of 0.41 nM. The EC50 in assay [7] worked out at 0.36 nM. Besides, in assay [8], the Kd worked out at 347 nM, the koff worked out at 0.0263 s⁻¹ and the kon was 76200 M⁻¹ s⁻¹.

B2: monovalent CD19 (8B8-2B11)-targeted 4-1BB ligand trimer-containing Fc (kih) fusion antigen binding molecule (Construct 4.11) (Fc fusion)
chain: B1 chain
heavy: QVQLVQSGAEVKKPGASVKVSCKASGYTFTDYIMHWVRQAPGQGLEWMGYINPYNDGSKYTEKFQGRVTMTSDTSISTAYMELSRLRSDDTAVYYCARGTYYYGPQLFDYWGQGTTVTVSSASTKGPSVFPLAPSSKSTSGGTAALGCLVKDYFPEPVTVSWNSGALTSGVHTFPAVLQSSGLYSLSSVVTVPSSSLGTQTYICNVNHKPSNTKVDKKV[human IgG1 Fc with changes omitted here]GGGGSGGGGSREGPELSPDDPAGLLDLRQGMFAQLVAQNVLLIDGPLSWYSDPGLAGVSLTGGLSYKEDTKELVVAKAGVYYVFFQLELRRVVAGEGSGSVSLALHLQPLRSAAGAAALALTVDLPPASSEARNSAFGFQGRLLHLSAGQRLGVHLHTEARARHAWQLTQGATVLGLFRVTPEIPAGL
light: DIVMTQTPLSLSVTPGQPASISCKSSQSLETSTGTTYLNWYLQKPGQSPQLLIYRVSKRFSGVPDRFSGSGSGTDFTLKISRVEAEDVGVYYCLQLLEDPYTFGQGTKLEIKRTVAAPSVFIFPPSDEQLKSGTASVVCLLNNFYPREAKVQWKVDNALQSGNSQESVTEQDSKDSTYSLSSTLTLSKADYEKHKVYACEVTHQGLSSPVTKSFNRGEC
notes: Human IgG1 Fc knob-into-hole with P329G, L234A, L235A; one CD19(8B8-2B11) Fab on the knob chain
Take B2: the EC50 in the assay with human CD19 on cells was 0.26 nM and 0.04 µg/mL. In addition, the EC50 in [9] was 0.13 nM and 0.02 µg/mL. Moreover, in assay [10], the EC50 is 0.05 µg/mL and 0.32 nM. Further, in assay [11], the “KD” value was 17.6 nM. In assay [8], this molecule showed a Kd of 369 nM, a koff of 0.0272 s⁻¹ and an on-rate (kon) of 73700 M⁻¹ s⁻¹.
